The campaign covered roughly 230,000 compounds. About 3,600 (1.6%) were called active. This list was built around the results that the source calls inconclusive (neither active nor inactive); the mix of calls is not that of the screen. Calls come from the whole dose curve; as a rule, active = well fitted inhibition curve with a large enough effect (not every such curve was filed as active); inconclusive = small, poorly fitted or top-dose-only effect, or another doubt; inactive = no such curve, though single readings can be large or run the other way. A potency beside an inconclusive call is a rough fit, not a confirmed value.
The compounds below were run against Lysine-specific demethylase 4E (Homo sapiens) (UniProt B2RXH2) (assay: qHTS Assay for Inhibitors of Human Jumonji Domain Containing 2E (JMJD2E)). Settings: JMJD2E catalytic domain, FDH-coupled NADH fluorescence (FDH is formaldehyde dehydrogenase); series mostly up to 57.1 µM.
Note: nearly all actives have a fitted effect of over 50% in size.
Potency is the fitted concentration of half-maximal effect; tags give direction and shape of the fitted curve.

Chain of UniProt B2RXH2 (B2RXH2 whole entry, looked up, the tested form may be a part): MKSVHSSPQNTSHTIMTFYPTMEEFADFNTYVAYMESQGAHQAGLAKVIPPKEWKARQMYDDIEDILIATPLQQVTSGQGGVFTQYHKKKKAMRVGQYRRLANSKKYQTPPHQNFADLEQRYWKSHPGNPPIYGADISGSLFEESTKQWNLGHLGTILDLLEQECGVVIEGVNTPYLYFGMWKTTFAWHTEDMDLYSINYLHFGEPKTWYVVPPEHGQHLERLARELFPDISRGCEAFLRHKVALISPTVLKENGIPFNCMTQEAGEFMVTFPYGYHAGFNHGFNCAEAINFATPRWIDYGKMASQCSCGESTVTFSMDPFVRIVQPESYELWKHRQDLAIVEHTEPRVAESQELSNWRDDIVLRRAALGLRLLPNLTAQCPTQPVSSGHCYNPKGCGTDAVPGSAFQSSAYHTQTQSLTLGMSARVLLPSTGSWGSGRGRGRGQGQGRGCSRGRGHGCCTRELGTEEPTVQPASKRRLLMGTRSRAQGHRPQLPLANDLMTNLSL

**Q.** Which Potency does the source give for `Cc1cccc(CSc2nc3ccncc3n2CC(=O)Nc2ccc(C)c(C)c2)c1` here?
**A.** Its Potency is inconclusive: 39.8 µM [inhibitor, single point].

**Q.** Which Potency does the source give for `CCN(CC)CCn1c(SCC(=O)Nc2cccc(OC)c2)nc2c(sc3ccccc32)c1=O` here?
**A.** The Potency was inconclusive: 31.6 µM [inhibitor, partial curve].

**Q.** `C=CCc1ccccc1OCC(O)CN1CCN(CCN2C(=O)c3cccc4cccc(c34)C2=O)CC1` (configuration not stated) was tested. Which Potency did it give?
**A.** The Potency was inconclusive: 39.8 µM [inhibitor, single point].

**Q.** `COc1ccc(C(Nc2cc(C)ccn2)c2ccc3ccc(C)nc3c2O)cc1` (configuration not stated) was tested. Which Potency did it give?
**A.** Its Potency is inconclusive: 1.41 µM [inhibitor, partial curve].

**Q.** With `Cc1ccc(C(=O)Nc2ccccc2C(=O)NC(Cc2ccccc2)C(=O)O)cc1` (configuration not stated) as the compound, how does the Potency read?
**A.** The Potency was inconclusive: 20 µM [inhibitor, partial curve].

**Q.** How did the Potency turn out when `Cc1cc(C)c2c(c1)/C(=N/Nc1ccc(S(N)(=O)=O)cc1[N+](=O)[O-])CCC2` was run?
**A.** Its Potency is “inactive”.

**Q.** Which Potency does the source give for `O=C(CSc1c2c(nc3cc(Cl)ccc13)CCCC2)NCc1ccco1` here?
**A.** Its Potency is “inactive”.

**Q.** `O=C(N/N=C/c1ccco1)c1cc(Br)ccc1OCc1ccccc1` was tested. Which Potency did it give?
**A.** The Potency was inconclusive: 22.4 µM [inhibitor, partial curve].

**Q.** For `COCc1cc(C)nc2oc(C(=O)c3ccccc3)c(N)c12`, which Potency is on record?
**A.** Its Potency is inconclusive: 28.2 µM [inhibitor, single point].

**Q.** For `Cc1ccc(CN2CC(C(=O)Nc3ccc4c(C)cc(=O)oc4c3)CC2=O)cc1` (configuration not stated), which Potency is on record?
**A.** The Potency was inconclusive: 28.2 µM [inhibitor, partial curve].

**Q.** `CC(=O)c1cnc2cc(-c3cccc(Br)c3)nn2c1C` was tested. Which Potency did it give?
**A.** Its Potency is inconclusive: 10 µM [inhibitor, partial curve].

**Q.** How did the Potency turn out when `O=C(NNC(=S)NC(=O)c1sc2ccccc2c1Cl)c1ccc(Cl)cc1` was run?
**A.** The Potency was “inactive”.

**Q.** For `CC1CC(=O)C2=C(C1)Nc1ncnn1C2c1ccccc1` (configuration not stated), which Potency is on record?
**A.** The Potency was “inactive”.

**Q.** Which Potency does the source give for `O=C(O)c1cc(Cl)c2ccccc2c1O` here?
**A.** The Potency was inconclusive: 28.2 µM [inhibitor, partial curve].

**Q.** `COc1ccc2nccc(C(N)=O)c2c1` was tested. Which Potency did it give?
**A.** The Potency was inconclusive: 28.2 µM [inhibitor, partial curve].

**Q.** Which Potency does the source give for `CCc1ccc(NC(=O)c2ccc3c(c2)C(=O)N(Cc2ccco2)C3=O)cc1` here?
**A.** The Potency was “inactive”.

**Q.** Which Potency does the source give for `COc1ccc(-c2cc3ccccc3n2CC(O)CN2CCC(C)CC2)cc1` (configuration not stated) here?
**A.** Its Potency is inconclusive: 28.2 µM [inhibitor, partial curve].

**Q.** For `Oc1ccccc1C=NC1=NN(c2cccc(C(F)(F)F)c2)CC1`, which Potency is on record?
**A.** The Potency was “inactive”.

**Q.** Which Potency does the source give for `O=C(NCCC1=CCCCC1)C1CCN(S(=O)(=O)c2cccc3nsnc23)CC1` here?
**A.** Its Potency is inconclusive: 39.8 µM [inhibitor, single point].

**Q.** `CCN(CC)CCNC(=O)c1cc2ccccc2nc1Cl` was tested. Which Potency did it give?
**A.** The Potency was inconclusive: 31.6 µM [inhibitor, single point].

**Q.** How did the Potency turn out when `CN(Cc1ccccc1)C(NC(=O)c1ccccc1)C(Cl)(Cl)Cl` (configuration not stated) was run?
**A.** Its Potency is inconclusive: 39.8 µM [inhibitor, single point].

**Q.** For `COc1cc(Nc2ccccn2)cc(C(=O)Nc2cccc(C(F)(F)F)c2)c1`, which Potency is on record?
**A.** Its Potency is inconclusive: 31.6 µM [inhibitor, single point].

**Q.** For `Brc1c(CSc2nc3ccccc3s2)nc2ncccn12`, which Potency is on record?
**A.** The Potency was inconclusive: 31.6 µM [inhibitor, partial curve].

**Q.** Which Potency does the source give for `Cc1ccc2oc(-c3cccc(NC(=O)Cn4cnc5c(=O)n(C)c(=O)n(C)c54)c3)nc2c1` here?
**A.** The Potency was inconclusive: 10 µM [inhibitor, partial curve].

**Q.** For `COc1ccc(Cc2nc3c4c(ncn3n2)Oc2ccc3ccccc3c2C4c2ccc(OC)c(OC)c2)cc1` (configuration not stated), which Potency is on record?
**A.** The Potency was inconclusive: 28.2 µM [inhibitor, partial curve].

**Q.** How did the Potency turn out when `CCN(CC)c1ccc(C(=O)NC(=S)Nc2cc(S(=O)(=O)N3CCOCC3)ccc2-n2cncn2)cc1` was run?
**A.** Its Potency is inconclusive: 28.2 µM [inhibitor, partial curve].

**Q.** How did the Potency turn out when `CCC/C=C(\CCC)C(NS(=O)(=O)c1ccccc1)c1ccc(C(F)(F)F)cc1` (configuration not stated) was run?
**A.** The Potency was “inactive”.

**Q.** `O=C1C=CC2(OCCCO2)C(Br)=C1CO` was tested. Which Potency did it give?
**A.** Its Potency is “inactive”.

**Q.** For `CCCCNc1cc(C(=O)O)cc(S(N)(=O)=O)c1Oc1ccccc1`, which Potency is on record?
**A.** The Potency was active: 25.1 µM.

**Q.** Which Potency does the source give for `CCCCCC(=O)Nc1cccc(-c2nc3ncccc3o2)c1` here?
**A.** The Potency was inconclusive: 28.2 µM [inhibitor, partial curve].

**Q.** How did the Potency turn out when `Cc1ccc(N=N/C(=C\O)C(=O)c2ccc(Cl)cc2)cc1` was run?
**A.** Its Potency is “inactive”.

**Q.** `O=C(NCCN1CCN(C(=O)c2cc3ccccc3oc2=O)CC1)c1cc2ccccc2oc1=O` was tested. Which Potency did it give?
**A.** Its Potency is inconclusive: 35.5 µM [inhibitor, partial curve].

**Q.** Which Potency does the source give for `C/C(=N/O)c1ccccn1` here?
**A.** Its Potency is active: 17.8 µM.

**Q.** `O=C1CC(c2ccc(F)cc2)Cc2nc(N3CCc4ccccc43)ncc21` (configuration not stated) was tested. Which Potency did it give?
**A.** The Potency was inconclusive: 0.708 µM [inhibitor, partial curve, poor fit].

**Q.** `Oc1ccc(C(c2nnnn2C2CCCCC2)N2CCOCC2)cc1` (configuration not stated) was tested. Which Potency did it give?
**A.** Its Potency is “inactive”.

**Q.** Which Potency does the source give for `CC(=O)Nc1ccc(NC(=S)Nc2ccc(F)cc2)cc1` here?
**A.** Its Potency is “inactive”.

**Q.** Which Potency does the source give for `Cc1noc(C)c1-c1nccc(-n2ccnc2)n1` here?
**A.** The Potency was “inactive”.

**Q.** With `CCNS(=O)(=O)c1ccc(NC(=S)NCc2ccco2)cc1` as the compound, how does the Potency read?
**A.** Its Potency is inconclusive: 39.8 µM [inhibitor, single point].

**Q.** Which Potency does the source give for `COC(=O)C1=COC(C)C2CN3CCc4c([nH]c5cc(OC)c(OC)cc45)C3CC12` (configuration not stated) here?
**A.** The Potency was inconclusive: 11.2 µM [inhibitor, partial curve].

**Q.** For `Cc1ccc2nc(Cl)c(/C=N/NC(=O)c3ccccc3O)cc2c1`, which Potency is on record?
**A.** Its Potency is inconclusive: 39.8 µM [inhibitor, single point].

**Q.** With `Cc1cccc(-n2c(CNC(=O)c3cccc([N+](=O)[O-])c3C)n[nH]c2=S)c1` as the compound, how does the Potency read?
**A.** The Potency was “inactive”.

**Q.** How did the Potency turn out when `O=c1c(O[C@@H]2O[C@H](CO)[C@@H](O)[C@H](O)[C@H]2O)c(-c2ccc(O)c(O)c2)oc2cc(O)cc(O)c12` was run?
**A.** Its Potency is active: 12.6 µM.

**Q.** For `COc1ccc(C(=O)NC(=S)Nc2nnn(C)n2)cc1`, which Potency is on record?
**A.** Its Potency is “inactive”.

**Q.** With `CCOC(=O)c1c(NC(=S)NC(C)=O)sc(C)c1C` as the compound, how does the Potency read?
**A.** Its Potency is “inactive”.

**Q.** For `CSc1cc(C)c(OCC(=O)Nc2ccc(NC(C)=O)cc2)c(C)c1`, which Potency is on record?
**A.** Its Potency is “inactive”.

**Q.** With `Cc1cc(/C=N/NC(N)=S)c(C)n1-c1ccc(Cl)c(Cl)c1` as the compound, how does the Potency read?
**A.** Its Potency is “inactive”.

**Q.** `COc1c(C(C)C)oc2cc3oc(=O)ccc3cc12` was tested. Which Potency did it give?
**A.** Its Potency is inconclusive: 39.8 µM [inhibitor, single point].

Source: PubChem BioAssay AID2147 (National Center for Advancing Translational Sciences (NCATS), 2009)
